# Laboratory results: paper PMC6919601, “Identification of Plasmodium dipeptidyl aminopeptidase allosteric inhibitors by high throughput screening” (PLoS ONE, 2019)
# Screen size: about 110,000 compounds; about 230 (0.21%) showed an effect of 50% or more. This is one part of the list.
# Target: DPAP1 (Plasmodium falciparum, UniProt Q8IIJ9)
# Test: primary screen, percent inhibition; read by cleavage of a fluorogenic dipeptide substrate; higher = more effect of the substance
# Set-up: species or system P. falciparum D10 trophozoite lysates; single well
# 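Also: 30 min substrate incubation versus DMSO and 10 µM JCP410 controls.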
# Chain of DPAP1 (Q8IIJ9 whole entry, looked up): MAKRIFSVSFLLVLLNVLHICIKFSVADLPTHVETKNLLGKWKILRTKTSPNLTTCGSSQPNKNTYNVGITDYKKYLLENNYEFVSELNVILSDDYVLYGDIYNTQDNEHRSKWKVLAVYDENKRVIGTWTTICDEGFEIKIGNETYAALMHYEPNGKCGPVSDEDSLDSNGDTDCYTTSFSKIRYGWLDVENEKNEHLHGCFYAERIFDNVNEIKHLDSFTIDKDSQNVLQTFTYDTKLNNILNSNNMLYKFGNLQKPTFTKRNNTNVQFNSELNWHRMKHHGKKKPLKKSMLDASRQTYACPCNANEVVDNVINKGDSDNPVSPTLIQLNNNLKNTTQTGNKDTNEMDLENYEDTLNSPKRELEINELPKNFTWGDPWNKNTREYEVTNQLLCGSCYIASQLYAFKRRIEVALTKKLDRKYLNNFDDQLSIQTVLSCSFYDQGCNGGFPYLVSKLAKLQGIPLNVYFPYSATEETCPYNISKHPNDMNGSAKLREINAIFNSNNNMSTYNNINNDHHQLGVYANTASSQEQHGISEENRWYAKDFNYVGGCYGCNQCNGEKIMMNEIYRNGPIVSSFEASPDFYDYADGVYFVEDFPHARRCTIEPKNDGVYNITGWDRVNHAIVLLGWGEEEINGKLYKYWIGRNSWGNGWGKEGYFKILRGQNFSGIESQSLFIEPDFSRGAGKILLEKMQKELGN
row,Compound,% Inhibition @ 10 uM [%]
1,COc1ccc(C2CC(c3ccccc3)=NN2S(=O)(=O)c2ccccc2)cc1 (centres unmarked),-6.3
2,COc1ccc(NC(=O)c2ccc(Cl)cc2Cl)cn1,-0.185
3,Cc1cccc(C(=O)Nc2sc3c(c2C(=O)N2CCN(C)CC2)CCC(C)C3)c1 (centres unmarked),-0.28
4,CCOC(=O)/C(C#N)=C/c1c(Oc2ccc(C)cc2)nc2c(C)cccn2c1=O,-1.43
5,O=C(NCCc1ccccc1)c1noc2c1CCc1ccccc1-2,-7.85
6,O=C(O)CNC(=O)c1ccccc1,3.39
7,COc1ccc(-c2cc(C(F)(F)F)nc(SCC(=O)NCc3ccncc3)n2)cc1OC,30.6
8,CCC(O)c1ccc(OC)c(OC)c1 (centres unmarked),-3.38
9,CC1(C)Oc2ccc3ccc(=O)oc3c2CC1=O,-4.87
10,Cc1ccc(C(C)C)cc1S(=O)(=O)NCc1cccnc1,-8.41
11,CCCn1c2ccccc2c2cnn(CC(=O)NCCN3CC(C)CC(C)C3)c(=O)c21 (centres unmarked),0.00353
12,COc1ccc(/C=C2/C(=O)CNC2=O)cc1,0.484
13,COc1ccc(NC2=CC(=O)CC(c3ccc(OC)cc3)C2)cc1 (centres unmarked),3.05
14,CCN(CC)CCNC(=O)Cn1cc2c(n1)-c1c(oc(C(=O)N3CCCC3)c1C)CC2,-4.07
15,O=C(Nc1ccccc1)C1CC=CCC1C(=O)OCC1CCCO1 (centres unmarked),3.25
16,O=C(c1cccs1)N1CCN(c2ccccc2)CC1,-6.82
17,COc1ccc(CNC(=O)CCn2c(-c3ccc(F)cc3)cc(C(C)=O)c2C)cc1OC,1.68
18,CC1CN(C(=O)c2ccc3c(c2)OCO3)OC(c2c[nH]c3ccccc23)O1 (centres unmarked),5.58
19,CC(C)CN(CCNC(=O)c1csc2c1CCCC2)CC(C)C,-1.44
20,NC(=O)c1ccc2c(c1)C1c3ccccc3C2c2ccccc21,5.77
21,Cc1cc(C(=O)NCc2ccccc2C)c2c(C)nn(-c3ccccc3)c2n1,-0.257
22,O=C(CCNS(=O)(=O)c1ccc2nc(O)ccc2c1)NC1CCN(Cc2ccccc2)CC1,-1.97
23,Cc1ccc(CSCC(=O)Nc2ccc3ccccc3c2)cc1,-5.14
24,Cc1ccc(CN2CCN(CCO)CC2)o1,-5.42
25,Cc1ccc(C(C)C)c(OCC(=O)Nc2cccc(Cl)c2)c1,-6.68
26,N#C/C(=C/c1ccco1)c1nc(-c2ccccc2O)cs1,-3.4
27,CN1CCCCC/C1=N\CCCn1cnc2c1c(=O)n(C)c(=O)n2C,2.99
28,O=C(NCc1ccco1)C1CC(c2cccc(Br)c2)=NO1 (centres unmarked),0.221
29,CCCC1CCc2nc3ccccc3c(C(=O)O)c2C1 (centres unmarked),2.55
